Molecules are shown by their SMILES. Out of some 150,000 compounds screened, about 540 (0.36%) showed an effect of 50% or more. This is one part of the list.

This assay concerns Plasmodium falciparum. The experiment in a line: Primary screen in NF54 nanoGlo assay, in single point, at 2uM, 72h; a lower Z score goes with more inhibition. The assay is classed as functional, Erythrocyte. The settings on record: timepoint 72 hour.
For the compound `O=C(NCCCN1CCOCC1)C1CC2CCC1C2` (centres undefined), the “% Inhibition” value is recorded as -1% and the Z score was found to be 0.08.
As for `Cc1ccc(CNC(=O)c2cccnc2)n1C`, the “% Inhibition” value was -5% and the Z score is 0.55.
The matching figures for `Cc1cc(C)nc(N(C)CCOc2ccccc2)n1`: -7% and 0.7.
For `Cc1nnc(-c2ccc3ccn(CC(=O)N4CCCc5ccccc54)c3c2)o1`, the “% Inhibition” value turned out to be 7% and the Z score is reported as -0.83.
As to `C[C@H]1CN(C(=O)NCCc2ccccc2F)CC[C@]1(O)C1CC1`, the “% Inhibition” value is -11% and the Z score stood at 1.93.
On to `COC(=O)CC1C(=O)NC2CCCCC2N1C(=O)Nc1ccc(Cl)c(Cl)c1` (centres undefined), for which the “% Inhibition” value is recorded as -8% and the Z score is on record as 1.
With `O=C(c1cnccn1)N1CCC(Cc2nc(C3CCOCC3)no2)CC1`, the “% Inhibition” value is reported as -8% and the Z score is 1.03.
As to `O=C(Nc1cccc(Cl)c1)c1c(-c2ccc(C(F)(F)F)cc2)noc1N1CCCCC1`, the “% Inhibition” value was 2% and the Z score is given as -0.39.
As to `CS(=O)(=O)C[C@H]1CCCN1C(=O)c1cc2c(o1)CCCC2`, the “% Inhibition” value is -19% and the Z score turned out to be 2.16.
For the compound `CCCC(CCC)C(=O)Nc1ccc(Br)cc1F`, the “% Inhibition” value is -3% and the Z score is given as 0.63.
On to `O=S(=O)(c1ccc(Br)cc1)n1ccc(C2CC2)n1`, for which the “% Inhibition” value worked out at 34% and the Z score is -0.74.
Take `COc1cc(C(=O)N2CC(NC(=O)C3CCC3)C2)ccc1F`: the “% Inhibition” value is recorded as -3% and the Z score worked out at 0.54.
As to `COC1(CO)CCN(c2nnnn2CCc2cccc(C)c2)CC1`, the “% Inhibition” value is on record as -11% and the Z score amounted to 1.5.
On to `O=C(Cn1ccc2ccccc21)N1CC[C@H](Oc2cnccn2)C1`, for which the “% Inhibition” value came to 0% and the Z score was determined as 0.03.
Turning to `CN(Cc1nnc2c(=O)n(C)ccn12)c1nc(C(F)(F)F)cs1`, the “% Inhibition” value was 3% and the Z score was -0.57.
Consider `CCc1ccc([C@H]2C[C@@H](c3ccc(Br)cc3)Nc3nnnn32)cc1`, for which the “% Inhibition” value was determined as 3% and the Z score is -0.35.
As for `O=C(c1cnccn1)N(Cc1ccc(Cl)cc1)c1ccccc1Cl`, the “% Inhibition” value is reported as -8% and the Z score came out at 1.11.
As to `CC[C@H](NCc1nccs1)c1cccc(S(N)(=O)=O)c1`, the “% Inhibition” value is recorded as -5% and the Z score came to 0.62.
Turning to `C=CCC[C@H](O)CN(Cc1c(-c2ccccc2)nn(C)c1Oc1ccc(Cl)cc1)C1CC1`, the “% Inhibition” value is 8% and the Z score was -0.98.
On to `COc1ccccc1N1CCN(C(=O)c2cc3n(n2)CCN(Cc2cccc(F)c2)C3=O)CC1`, for which the “% Inhibition” value worked out at 4% and the Z score is listed as -0.59.
On the same counts, the results for `Cc1cccc2c(NCc3ccccc3F)nc(CNC(=O)Cc3cccnc3)nc12` are -7% and 0.87.
`O=C1c2ccccc2C(=O)N1Cc1nc2cccnc2n1Cc1ccc(F)cc1`: the “% Inhibition” value is 6% and the Z score is -1.17.
As to `Cc1ccnc2ccc(C(=O)N3CC[C@]4(CNC(=O)C4)C3)cc12`, the “% Inhibition” value was -1% and the Z score was determined as 0.12.
With `Cc1ccc(CN2CCN(Cc3ccc(C)o3)[C@@H](CCO)C2)o1`, the “% Inhibition” value is -17% and the Z score came to 1.49.
On the same counts, the results for `O=C(c1cc(Cl)ccc1F)N1CC[C@@H]2OCc3cnnn3[C@H]2C1` are 4% and -0.58.
`O=C(O)c1c(NC(=O)C(c2ccccc2)c2ccccc2)sc2c1CCCC2`: the “% Inhibition” value is recorded as -15% and the Z score is reported as 2.36.
On to `O=C(Cn1ccn2nc(-c3ccc(F)cc3)c(CO)c2c1=O)NC1CCCCC1`, for which the “% Inhibition” value worked out at 0% and the Z score is listed as 0.02.
For the compound `CCN1c2cc(C(=O)Nc3cc(F)cc(F)c3)ccc2C(=O)N2CCCCC[C@H]21`, the “% Inhibition” value is recorded as -7% and the Z score is reported as 1.2.
On the same counts, the results for `Cc1ncnc2c1CCC(=O)N2CCCN1CCOCC1` are -8% and 1.11.
Consider `COc1ccccc1[C@@H](NC(=O)c1cnn(C(C)C)c1)c1ccco1`, for which the “% Inhibition” value was 3% and the Z score is -0.57.
On the same counts, the results for `Cn1nc(C(=O)N(CCc2ccccc2)Cc2ccco2)ccc1=O` are -3% and 0.53.
With `CN(C)Cc1ccc([C@@H]2CCCN2C(=O)c2scc3c2CCCC3)cc1`, the “% Inhibition” value is -2% and the Z score was found to be 0.35.
Regarding `CCc1cccc(OCCN2CCO[C@H](C)[C@H]2C(N)=O)c1`, the “% Inhibition” value is on record as -14% and the Z score is listed as 2.42.
On to `CC(C)(C)C(O)CC(CO)NCc1cccs1` (centres undefined), for which the “% Inhibition” value is on record as -11% and the Z score came out at 1.15.
With `NS(=O)(=O)Cc1ccc(OC(F)(F)F)cc1`, the “% Inhibition” value was -4% and the Z score was 0.52.
In the case of `O=C(c1cccs1)N1CCC2(CC1)C[C@@H](N1CCOCC1)CCO2`, the “% Inhibition” value is -9% and the Z score was found to be 1.21.
For the compound `CCOc1ccccc1CN1C(=O)c2cc(-c3ccccc3)nn2C[C@@]1(C)C(=O)NCc1ccccc1`, the “% Inhibition” value is reported as 1% and the Z score is reported as -0.09.
The matching figures for `Cc1cc2c(cc1S(=O)(=O)N1CCN(C(=O)c3ccc(F)c(Cl)c3)CC1)O[C@@H](C)C(=O)N2`: 1% and -0.05.
As to `Cc1n[nH]c(C)c1CN(C)CCC(=O)NC(C)(C)C`, the “% Inhibition” value was 3% and the Z score is -0.43.
On to `c1cnn(CCN2CCOC3(CCCCCC3)C2)c1`, for which the “% Inhibition” value is -9% and the Z score was 0.85.
As for `Cc1cc(=O)c(C(=O)NCCC[C@H]2CCOC2)c(C)[nH]1`, the “% Inhibition” value is recorded as 3% and the Z score is on record as -0.43.
In the case of `CCOc1ccccc1CN(Cc1c(C)nn(C(C)(C)C)c1C)C1CC1`, the “% Inhibition” value stood at 4% and the Z score is listed as -0.72.

In general, % Inhibition refers to the drop in the measured response relative to a control, in per cent.

Source of the values: ChEMBL document CHEMBL4888484, “Replenishing the malaria drug discovery pipeline: Screening and hit evaluation of the MMV Hit Generation Library 1 (HGL1) against asexual blood stage Plasmodium falciparum ,using a nano luciferase reporter read-out” (2022).
